This data set deals with the molecule itself. Briefly: cryo-EM structure.

B1: human ferritin light chain, iron-free homopolymer (apoferritin) (natural protein)
chain: not shown
With B1, the binding result is on record as “binds”.
